For the test, the system named is Pseudomonas aeruginosa resistance gene quadruple disruption strain YM64. The test is described as follows: Minimum inhibitory concentration on bacteria. Particulars: 20 h, read-out: minimum inhibitory concentration (MIC). As to the method: First, a method for measuring the minimum inhibitory concentration on the bacteria will be described. First, 100 μL per hole of a 96-hole test plate was prepared using a Mueller Hinton medium (CAMHB) (and blood added as needed) supplemented with 20 mg/L of Ca^2+ and 10 mg/L of Mg^2+ to give a 2-fold dilution series. As a reagent, chlorhexidine was used as an example, and norfloxacin, which is an antibiotic, was used as a comparative example. Each bacterium was cultured in CAMHB (blood added as needed) and added to each of the holes of the test plate at approximately 10000 CFU/mL. The cultures were cultivated at 37° C. for 20 hours, and growth of the bacteria was visually confirmed, and the lowest concentration without growth of the bacteria was defined as the minimum inhibitory concentration (MIC: Minimum Inhibitory Concentration). […]
Minimum inhibitory concentrations (MIC) were measured against drug-sensitive bacteria and drug-resistant bacteria.

Results on two compounds are retold here after patent publication US20240215584A1, “ARTICLE HAVING ANTIVIRAL PROPERTIES, ARTICLE HAVING ANTIMICROBIAL PROPERTIES, AND ARTICLE HAVING ANTIFUNGAL PROPERTIES” (NATIONAL INSTITUTE OF ADVANCED INDUSTRIAL SCIENCE AND …, priority 2021, published 2024).

Each structure is given as a SMILES string. ≈ marks a conversion by molar mass, not a printed value.

For `CCn1cc(C(=O)O)c(=O)c2cc(F)c(N3CCNCC3)cc21` [Norfloxacin, norfloxacin], the MIC was 0.12 µg/mL (≈ 0.376 µM).
The figure for `N=C(NCCCCCCNC(=N)NC(=N)Nc1ccc(Cl)cc1)NC(=N)Nc1ccc(Cl)cc1` [chlorhexidine] is 2 µg/mL (≈ 3.96 µM).
